Results taken from the supplement of paper PMC8728848.
Some of the results follow.

Tests used:
Experiment in all cases: glycan array binding signal (z-score within array); higher = stronger binding
Conditions in all cases: glycan notation: IUPAC condensed, linker removed; mutation: E227G
Fuc(a1-2)Gal = target: Fuc(a1-2)Gal
Outline: (§1)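 Glycan array data were curated from 3228 arrays in the Consortium for Functional Glycomics database and kept only where the protein sequence was available. Glycan names were converted to IUPAC-condensed notation, and columns mapping to the same glycan were averaged. The binding signal is a within-array Z-score, averaged across arrays of the same protein sequence at different concentrations or buffers and across linkers. Negative Z-scores can be read as non-binding.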

Fuc(a1-2)Gal(b1-3)GalNAc = target: Fuc(a1-2)Gal(b1-3)GalNAc
Outline: as §1

[1] = target: Fuc(a1-2)Gal(b1-3)GalNAc(a1-3)[Fuc(a1-2)]Gal(b1-4)Glc
Outline: as §1

[2] = target: Fuc(a1-2)Gal(b1-3)GalNAc(a1-3)[Fuc(a1-2)]Gal(b1-4)GlcNAc
Outline: as §1

[3] = target: Fuc(a1-2)Gal(b1-3)GalNAc(b1-3)Gal
Outline: as §1

[4] = target: Fuc(a1-2)Gal(b1-3)GalNAc(b1-3)Gal(a1-4)Gal(b1-4)Glc
Outline: as §1

[5] = target: Fuc(a1-2)Gal(b1-3)GalNAc(b1-4)[Neu5Ac(a2-3)]Gal(b1-4)Glc
Outline: as §1

Fuc(a1-2)Gal(b1-3)GlcNAc = target: Fuc(a1-2)Gal(b1-3)GlcNAc
Outline: as §1

[6] = target: Fuc(a1-2)Gal(b1-3)GlcNAc(b1-2)Man(a1-3)[Fuc(a1-2)Gal(b1-3)GlcNAc(b1-2)Man(a1-6)]Man(b1-4)GlcNAc(b1-4)GlcNAc
Outline: as §1

[7] = target: Fuc(a1-2)Gal(b1-3)GlcNAc(b1-2)Man(a1-3)[Fuc(a1-2)Gal(b1-3)GlcNAc(b1-2)Man(a1-6)]Man(b1-4)GlcNAc(b1-4)[Fuc(a1-6)]GlcNAc
Outline: as §1

[8] = target: Fuc(a1-2)Gal(b1-3)GlcNAc(b1-3)Gal(b1-4)Glc
Outline: as §1

[9] = target: Fuc(a1-2)Gal(b1-3)GlcNAc(b1-3)GalNAc
Outline: as §1

[10] = target: Fuc(a1-2)Gal(b1-3)GlcNAc(b1-3)[Fuc(a1-2)Gal(b1-3)GlcNAc(b1-6)]GalNAc
Outline: as §1

[11] = target: Fuc(a1-2)Gal(b1-3)GlcNAc(b1-3)[Gal(b1-4)GlcNAc(b1-6)]Gal(b1-4)Glc
Outline: as §1

[12] = target: Fuc(a1-2)Gal(b1-3)GlcNAc(b1-3)[Neu5Ac(a2-6)Gal(b1-4)GlcNAc(b1-6)]Gal(b1-4)Glc
Outline: as §1

[13] = target: Fuc(a1-2)Gal(b1-3)GlcNAc6S
Outline: as §1

[14] = target: Fuc(a1-2)Gal(b1-3)[Fuc(a1-4)]GlcNAc
Outline: as §1

[15] = target: Fuc(a1-2)Gal(b1-3)[Fuc(a1-4)]GlcNAc(b1-2)Man(a1-3)[Fuc(a1-2)Gal(b1-3)[Fuc(a1-4)]GlcNAc(b1-2)Man(a1-3)]Man(b1-4)GlcNAc(b1-4)GlcNAc
Outline: as §1

[16] = target: Fuc(a1-2)Gal(b1-3)[Fuc(a1-4)]GlcNAc(b1-2)Man(a1-3)[Fuc(a1-2)Gal(b1-3)[Fuc(a1-4)]GlcNAc(b1-2)Man(a1-6)]Man(b1-4)GlcNAc(b1-4)[Fuc(a1-6)]GlcNAc(b1-4)[Fuc(a1-6)]GlcNAc
Outline: as §1

[17] = target: Fuc(a1-2)Gal(b1-3)[Fuc(a1-4)]GlcNAc(b1-3)[Fuc(a1-3)[Gal(b1-4)]GlcNAc(b1-6)]Gal(b1-4)Glc
Outline: as §1

[18] = target: Fuc(a1-2)Gal(b1-3)[Fuc(a1-4)]GlcNAc(b1-3)[Gal(b1-4)GlcNAc(b1-6)]Gal(b1-4)Glc
Outline: as §1

[19] = target: Fuc(a1-2)Gal(b1-4)Fuc(a1-3)]GlcNAc(b1-2)Man(a1-3)[Fuc(a1-2)Gal(b1-4)[Fuc(a1-3)]GlcNAc(b1-2)Man(a1-6)]Man(b1-4)GlcNAc(b1-4)GlcNAc
Outline: as §1

Fuc(a1-2)Gal(b1-4)Glc = target: Fuc(a1-2)Gal(b1-4)Glc
Outline: as §1

Fuc(a1-2)Gal(b1-4)Glc6S = target: Fuc(a1-2)Gal(b1-4)Glc6S
Outline: as §1

Fuc(a1-2)Gal(b1-4)GlcNAc = target: Fuc(a1-2)Gal(b1-4)GlcNAc
Outline: as §1

[20] = target: Fuc(a1-2)Gal(b1-4)GlcNAc(b1-2)Man
Outline: as §1

[21] = target: Fuc(a1-2)Gal(b1-4)GlcNAc(b1-2)Man(a1-3)[Fuc(a1-2)Gal(b1-4)GlcNAc(b1-2)Man(a1-6)]Man(b1-4)GlcNAc(b1-4)GlcNAc
Outline: as §1

[22] = target: Fuc(a1-2)Gal(b1-4)GlcNAc(b1-2)Man(a1-3)[Fuc(a1-2)Gal(b1-4)GlcNAc(b1-2)Man(a1-6)]Man(b1-4)GlcNAc(b1-4)[Fuc(a1-6)]GlcNAc
Outline: as §1

[23] = target: Fuc(a1-2)Gal(b1-4)GlcNAc(b1-2)[Fuc(a1-2)Gal(b1-4)GlcNAc(b1-4)]Man(a1-3)[Fuc(a1-2)Gal(b1-4)GlcNAc(b1-2)Man(a1-6)]Man(b1-4)GlcNAc(b1-4)GlcNAc
Outline: as §1

[24] = target: Fuc(a1-2)Gal(b1-4)GlcNAc(b1-3)Gal(b1-4)GlcNAc
Outline: as §1

B1: Epa1-NP-mutant-E227G (Candida glabrata), Q6VBJ0 (protein)
chain: MILNPALFLNKCVCIYTTLILLLLTNGGYATSSNDISLASKDPTTFPLGCSPDITTPKKGLSMELYSYDFRKKGSYPCWDAAYLDPNYPRTGYKSHRLLAKVDGVTGNINFYYHATKGCTPQLGHLPASYNYPKPLTMTNFTMLLYGYFRPKVTGFHTFTISADDLLFVNFGAGNAFDCCRRDSSADHFGNYQAYAIWGSKTAKDELTVHLDAGVYYPIRLFYNNRGYDGALSFTFKTESNENTVSDFSEYFFSLDDTEEGCPGLISYDSSCASVKTSKIIGIDYHTETPNENLVPITKTIYHLGIPCTGTTTTPLCGSGFYDPLANKCVTINTSSTSSVTKTTSHTTSKEVSFHSSISSQKTLIPKSIPSPYGPIKSQSIPTEMETSSEISSSEYAFSDVISTPSHSPYTKKHSSLNSSSYTSTVIHSLTSYSISQGIFSTSLSEQNITSKSSTDKFSTATSMSNNITQSSIIISQFSTNNENYTTTSMHTSSDKISTETLNNSISTTTSILFSNSSTILKNNTTIISSDKDTHYHPVNPTIVCSTNKTEIICASITQPSISNSNNHWSSSVLKFNSTTVRSTLPSSAGSNETSINVPFSSSTESNTSTSSTSTSNSKMVRSTLPSSAGSNETSISVPFSSSTESNTSTSSTSTSNSKMVRSTLPSSAGSNETSINVPFSSSTESNTSTSSTSTSNSKTVRSTPFSSAGIIMTSLSQRNNKSASSYASSNSKCYNTADSCRKVHSTPSYLLTSSYTSEGVDYDCSLVSTKLKINDTNCVNNKHTTKSCLKTSVTTTIPTLEIKTARKSSSNTIGLHSYPTSSPNKSISSAPIIGYISSFKTIKTASPSYQTSDLTTITTITSLNNPGSTAVENTHESNDKSRKTSSNDISSKHSVIKETKDAVESSNKSHQTNTLKCSSIIIASSSHNSYESLGGTTLTLTLSKVYSPQNNDTLPFLEISEVNPSRTVLPESSKMMQYLTSTEERNKTARNTIATNIVSISTFHFEGEGNAIRMGYTQLLLMLIGIIVMNIGT
For B1, the “glycan array binding signal (z-score)” value (Fuc(a1-2)Gal) was -0.038, the “glycan array binding signal (z-score)” value (Fuc(a1-2)Gal(b1-3)GalNAc) was -0.185 and the “glycan array binding signal (z-score)” value [1] was -0.144. The “glycan array binding signal (z-score)” value [2] was -0.119, the “glycan array binding signal (z-score)” value [3] was -0.129 and the “glycan array binding signal (z-score)” value [4] was -0.113. For the same binder, the “glycan array binding signal (z-score)” value [5] was -0.07, the “glycan array binding signal (z-score)” value (Fuc(a1-2)Gal(b1-3)GlcNAc) was -0.117 and the “glycan array binding signal (z-score)” value [6] was -0.094. For the same binder, the “glycan array binding signal (z-score)” value [7] was -0.223, the “glycan array binding signal (z-score)” value [8] was -0.18 and the “glycan array binding signal (z-score)” value [9] was -0.268. The “glycan array binding signal (z-score)” value [10] was -0.09, the “glycan array binding signal (z-score)” value [11] was -0.113 and the “glycan array binding signal (z-score)” value [12] was -0.146. For the same binder, the “glycan array binding signal (z-score)” value [13] was -0.031, the “glycan array binding signal (z-score)” value [14] was -0.25 and the “glycan array binding signal (z-score)” value [15] was -0.037. For the same binder, the “glycan array binding signal (z-score)” value [16] was -0.132, the “glycan array binding signal (z-score)” value [17] was -0.328 and the “glycan array binding signal (z-score)” value [18] was -0.277. The “glycan array binding signal (z-score)” value [19] was 0.147, the “glycan array binding signal (z-score)” value (Fuc(a1-2)Gal(b1-4)Glc) was -0.104 and the “glycan array binding signal (z-score)” value (Fuc(a1-2)Gal(b1-4)Glc6S) was -0.068. For the same binder, the “glycan array binding signal (z-score)” value (Fuc(a1-2)Gal(b1-4)GlcNAc) was -0.132, the “glycan array binding signal (z-score)” value [20] was -0.202 and the “glycan array binding signal (z-score)” value [21] was -0.028. For the same binder, the “glycan array binding signal (z-score)” value [22] was -0.193, the “glycan array binding signal (z-score)” value [23] was -0.042 and the “glycan array binding signal (z-score)” value [24] was -0.243.
